In PMC13581290, “A systematic interactome of Saccharomyces cerevisiae SET1C expands its functional landscape and identifies candidate regulatory connections” (eLife, 2026) one finds binding data, which are given here for nine substances.

The chains behind the UniProt entries cited, without tags or fusion partners. Where a name states a change or a piece, a line headed by the entry shows the natural chain unless it says otherwise. Residues count along the entry.
UniProt P22082: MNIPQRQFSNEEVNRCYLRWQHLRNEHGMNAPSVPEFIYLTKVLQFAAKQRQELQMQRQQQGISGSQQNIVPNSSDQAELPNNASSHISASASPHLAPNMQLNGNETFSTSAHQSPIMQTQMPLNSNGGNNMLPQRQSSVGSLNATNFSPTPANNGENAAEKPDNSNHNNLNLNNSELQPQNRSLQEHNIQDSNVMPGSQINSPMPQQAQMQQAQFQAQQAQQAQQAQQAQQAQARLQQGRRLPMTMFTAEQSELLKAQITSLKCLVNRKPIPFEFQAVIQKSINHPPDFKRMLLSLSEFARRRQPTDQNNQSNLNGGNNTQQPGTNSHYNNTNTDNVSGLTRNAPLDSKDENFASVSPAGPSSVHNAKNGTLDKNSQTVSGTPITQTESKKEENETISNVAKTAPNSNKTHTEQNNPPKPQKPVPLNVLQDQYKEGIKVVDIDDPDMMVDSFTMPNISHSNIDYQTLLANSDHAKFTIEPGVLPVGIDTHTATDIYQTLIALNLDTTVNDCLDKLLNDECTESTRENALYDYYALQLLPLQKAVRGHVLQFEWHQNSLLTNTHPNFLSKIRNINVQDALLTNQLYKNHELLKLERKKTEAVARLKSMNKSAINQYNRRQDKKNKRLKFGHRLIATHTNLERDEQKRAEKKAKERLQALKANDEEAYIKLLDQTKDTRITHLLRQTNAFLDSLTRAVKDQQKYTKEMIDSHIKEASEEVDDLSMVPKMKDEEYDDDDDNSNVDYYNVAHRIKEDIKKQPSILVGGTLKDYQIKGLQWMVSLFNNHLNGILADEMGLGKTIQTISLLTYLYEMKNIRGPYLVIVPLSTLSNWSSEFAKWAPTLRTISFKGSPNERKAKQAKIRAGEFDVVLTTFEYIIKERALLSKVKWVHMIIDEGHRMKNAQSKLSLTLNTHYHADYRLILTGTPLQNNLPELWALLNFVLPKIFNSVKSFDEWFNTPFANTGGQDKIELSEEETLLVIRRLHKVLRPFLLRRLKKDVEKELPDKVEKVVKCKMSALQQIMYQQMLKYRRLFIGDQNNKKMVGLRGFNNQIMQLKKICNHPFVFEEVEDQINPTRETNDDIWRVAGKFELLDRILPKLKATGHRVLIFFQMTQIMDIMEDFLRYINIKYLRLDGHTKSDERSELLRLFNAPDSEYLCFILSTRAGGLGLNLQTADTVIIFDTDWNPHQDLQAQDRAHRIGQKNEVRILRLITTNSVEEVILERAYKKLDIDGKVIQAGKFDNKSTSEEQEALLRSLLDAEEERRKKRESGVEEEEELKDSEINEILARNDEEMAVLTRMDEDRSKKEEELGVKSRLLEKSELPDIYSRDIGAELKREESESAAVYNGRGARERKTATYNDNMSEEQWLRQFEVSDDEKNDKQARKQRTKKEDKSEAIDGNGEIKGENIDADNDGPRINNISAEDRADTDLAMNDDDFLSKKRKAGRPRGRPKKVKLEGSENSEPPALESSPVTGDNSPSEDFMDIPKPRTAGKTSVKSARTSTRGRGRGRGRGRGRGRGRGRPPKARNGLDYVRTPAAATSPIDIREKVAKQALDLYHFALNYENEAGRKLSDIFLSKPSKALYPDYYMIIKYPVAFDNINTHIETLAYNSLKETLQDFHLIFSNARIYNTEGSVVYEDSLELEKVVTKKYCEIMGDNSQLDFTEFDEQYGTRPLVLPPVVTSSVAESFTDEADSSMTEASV
GST-Snf2C-AT-hook: residues 1384-1547 of P22082
GST-Snf2C-Bromo: residues 1542-1655 of P22082
UniProt P29469: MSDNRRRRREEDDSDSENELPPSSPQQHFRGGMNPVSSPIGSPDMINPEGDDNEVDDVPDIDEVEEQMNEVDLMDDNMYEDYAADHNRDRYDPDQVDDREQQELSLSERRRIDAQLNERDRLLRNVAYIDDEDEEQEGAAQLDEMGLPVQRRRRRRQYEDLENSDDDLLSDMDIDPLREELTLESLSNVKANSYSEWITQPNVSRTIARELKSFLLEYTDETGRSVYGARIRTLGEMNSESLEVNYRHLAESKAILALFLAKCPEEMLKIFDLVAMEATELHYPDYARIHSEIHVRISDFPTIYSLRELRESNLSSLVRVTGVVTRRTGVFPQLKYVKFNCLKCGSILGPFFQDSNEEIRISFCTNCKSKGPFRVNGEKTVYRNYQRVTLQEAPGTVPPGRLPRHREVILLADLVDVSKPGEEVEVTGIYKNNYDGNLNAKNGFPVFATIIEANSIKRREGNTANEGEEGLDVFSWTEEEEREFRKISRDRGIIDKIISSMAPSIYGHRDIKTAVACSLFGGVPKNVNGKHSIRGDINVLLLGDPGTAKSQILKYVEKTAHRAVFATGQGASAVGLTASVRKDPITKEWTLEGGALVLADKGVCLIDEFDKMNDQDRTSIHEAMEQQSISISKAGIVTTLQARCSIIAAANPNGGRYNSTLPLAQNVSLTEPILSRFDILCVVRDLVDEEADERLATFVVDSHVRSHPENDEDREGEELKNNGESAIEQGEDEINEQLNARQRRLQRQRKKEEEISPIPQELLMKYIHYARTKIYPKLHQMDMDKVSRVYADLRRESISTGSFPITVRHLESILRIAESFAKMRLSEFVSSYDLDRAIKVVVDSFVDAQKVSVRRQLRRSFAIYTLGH
UniProt P38827: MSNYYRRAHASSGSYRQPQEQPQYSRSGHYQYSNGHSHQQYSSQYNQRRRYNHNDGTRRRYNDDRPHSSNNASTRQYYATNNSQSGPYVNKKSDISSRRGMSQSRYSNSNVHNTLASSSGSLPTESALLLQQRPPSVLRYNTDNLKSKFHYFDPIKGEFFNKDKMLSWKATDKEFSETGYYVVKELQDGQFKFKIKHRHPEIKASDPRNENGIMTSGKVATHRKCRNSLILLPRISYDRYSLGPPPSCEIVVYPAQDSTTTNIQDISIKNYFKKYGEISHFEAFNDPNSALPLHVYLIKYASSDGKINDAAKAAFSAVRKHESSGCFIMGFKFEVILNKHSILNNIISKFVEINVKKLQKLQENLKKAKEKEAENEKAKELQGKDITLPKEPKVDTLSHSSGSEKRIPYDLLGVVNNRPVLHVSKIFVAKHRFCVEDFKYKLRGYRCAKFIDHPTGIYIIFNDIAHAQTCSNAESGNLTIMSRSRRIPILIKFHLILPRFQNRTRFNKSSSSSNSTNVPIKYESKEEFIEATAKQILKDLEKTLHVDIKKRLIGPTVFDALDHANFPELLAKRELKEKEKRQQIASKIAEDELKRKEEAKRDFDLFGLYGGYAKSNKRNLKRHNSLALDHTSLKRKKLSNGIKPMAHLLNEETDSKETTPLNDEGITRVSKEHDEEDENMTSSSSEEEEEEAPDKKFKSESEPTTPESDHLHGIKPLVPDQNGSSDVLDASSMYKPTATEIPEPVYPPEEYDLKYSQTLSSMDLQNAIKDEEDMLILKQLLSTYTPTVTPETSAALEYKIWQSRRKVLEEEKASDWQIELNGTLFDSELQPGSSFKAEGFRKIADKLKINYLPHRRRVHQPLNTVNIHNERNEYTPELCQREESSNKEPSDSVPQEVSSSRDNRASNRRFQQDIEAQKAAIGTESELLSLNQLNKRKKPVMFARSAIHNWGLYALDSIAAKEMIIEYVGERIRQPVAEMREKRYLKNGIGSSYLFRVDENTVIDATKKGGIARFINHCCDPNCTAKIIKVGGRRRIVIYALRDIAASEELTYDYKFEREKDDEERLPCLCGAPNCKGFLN
UniProt P53939: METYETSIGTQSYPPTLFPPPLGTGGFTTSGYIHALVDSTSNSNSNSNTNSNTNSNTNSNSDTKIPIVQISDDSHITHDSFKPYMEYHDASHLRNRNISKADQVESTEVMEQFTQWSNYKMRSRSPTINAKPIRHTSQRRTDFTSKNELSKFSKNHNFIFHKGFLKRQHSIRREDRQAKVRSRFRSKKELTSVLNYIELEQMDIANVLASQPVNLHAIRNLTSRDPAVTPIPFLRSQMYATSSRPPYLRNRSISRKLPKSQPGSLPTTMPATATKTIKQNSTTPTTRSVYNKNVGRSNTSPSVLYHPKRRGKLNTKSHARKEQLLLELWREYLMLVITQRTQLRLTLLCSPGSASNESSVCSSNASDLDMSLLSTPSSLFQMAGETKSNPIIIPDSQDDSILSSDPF

Results are given in words; binding and its absence hold for the method and conditions named. For part of these data: Binding seen in cells or lysates may run through a third protein. Some results given as binding are weak or reduced against the parent protein; the word gives no strength. For part of these data: Tags and fused reporters may be left off the sequences shown.

In test [1] the target is GST-Snf2C-AT-hook (S. cerevisiae) (UniProt P22082). Nature of the test: pull-down; GST-tagged Snf2 fragments (250 nM) on glutathione-Sepharose 4B with SET1C or C762SET1C (25 nM), BSA 0.2 mg/ml; 20 mM Tris-Cl pH 7.9, 150 mM NaCl, 0.2 mM EDTA, 20% glycerol, 0.1% NP-40; 4°C, 3 hr; immunoblotting; both purified. (Immunoblotting shows a protein as a band on a membrane.)
Test [2] deals with GST-Snf2C-Bromo (S. cerevisiae) (UniProt P22082). The description is as above.
Test [3] deals with T1, GST-Spp1 (S. cerevisiae) (UniProt Q03012).
T1 sequence: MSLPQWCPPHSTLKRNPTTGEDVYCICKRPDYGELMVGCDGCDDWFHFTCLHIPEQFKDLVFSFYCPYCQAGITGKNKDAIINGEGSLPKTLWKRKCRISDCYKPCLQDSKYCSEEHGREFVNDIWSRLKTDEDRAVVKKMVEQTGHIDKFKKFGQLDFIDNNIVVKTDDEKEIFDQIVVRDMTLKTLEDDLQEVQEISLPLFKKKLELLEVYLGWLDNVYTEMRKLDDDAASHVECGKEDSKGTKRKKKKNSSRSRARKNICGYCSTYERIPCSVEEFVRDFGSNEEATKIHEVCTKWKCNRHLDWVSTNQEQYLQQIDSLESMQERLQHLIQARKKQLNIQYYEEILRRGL
In words: pull-down; GST fusion proteins as baits, 35S-labeled in vitro-translated proteins as preys; autoradiography; only the target purified.

Test [4] deals with T2, Bre2, two-hybrid fusion (S. cerevisiae) (UniProt P43132).
T2 sequence: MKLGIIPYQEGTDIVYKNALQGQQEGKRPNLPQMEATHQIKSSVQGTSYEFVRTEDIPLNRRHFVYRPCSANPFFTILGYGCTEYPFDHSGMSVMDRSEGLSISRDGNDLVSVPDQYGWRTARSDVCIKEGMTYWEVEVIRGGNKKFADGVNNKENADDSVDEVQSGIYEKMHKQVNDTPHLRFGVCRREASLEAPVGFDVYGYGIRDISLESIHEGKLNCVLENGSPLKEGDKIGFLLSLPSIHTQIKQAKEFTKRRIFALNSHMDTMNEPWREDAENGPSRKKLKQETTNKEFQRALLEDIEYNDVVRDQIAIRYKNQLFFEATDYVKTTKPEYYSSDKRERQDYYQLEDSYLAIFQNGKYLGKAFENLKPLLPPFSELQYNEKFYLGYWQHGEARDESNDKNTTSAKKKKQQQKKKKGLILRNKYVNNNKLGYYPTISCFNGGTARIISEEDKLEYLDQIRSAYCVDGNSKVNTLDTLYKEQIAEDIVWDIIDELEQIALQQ
Nature of the test: two-hybrid; 10 screens (Hybrigenics) of a genomic S. cerevisiae library in pP6 by mating; baits fused to the Gal4 DNA-binding domain or LexA; selection on medium lacking tryptophan, leucine and histidine, with 3AT if necessary.

Test [5] has as its target GST-Mcm2 (S. cerevisiae) (UniProt P29469). In words: pull-down; GST fusion proteins as baits, 35S-labeled in vitro-translated proteins as preys; autoradiography; only the target purified.
Test [6] concerns the target Snf2-Myc (S. cerevisiae) (UniProt P22082). Nature of the test: co-IP; yeast lysate in TMG 50 (10 mM Tris-HCl pH 8.0, 50 mM NaCl, 10% glycerol); Myc-tagged Snf2 precipitated overnight with 9E10 antibody and protein-G dynabeads; blot with anti-Set1 antibodies.
The target of test [7] is T3, Sdc1, two-hybrid fusion (S. cerevisiae) (UniProt Q03323).
T3 sequence: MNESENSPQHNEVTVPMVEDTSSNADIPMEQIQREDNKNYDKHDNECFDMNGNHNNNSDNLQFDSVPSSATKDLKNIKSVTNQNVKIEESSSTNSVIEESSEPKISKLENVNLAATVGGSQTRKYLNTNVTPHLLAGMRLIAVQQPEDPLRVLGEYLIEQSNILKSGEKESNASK
In words: two-hybrid; 10 screens (Hybrigenics) of a genomic S. cerevisiae library in pP6 by mating; baits fused to the Gal4 DNA-binding domain or LexA; selection on medium lacking tryptophan, leucine and histidine, with 3AT if necessary.

The target in test [8] is T4, GST-Sdc1 (S. cerevisiae) (UniProt Q03323).
T4 sequence: T3 sequence
Nature of the test: pull-down; GST fusion proteins as baits, 35S-labeled in vitro-translated proteins as preys; autoradiography; only the target purified.

The target in test [9] is T5, GST-Shg1 (S. cerevisiae) (UniProt P38337).
T5 sequence: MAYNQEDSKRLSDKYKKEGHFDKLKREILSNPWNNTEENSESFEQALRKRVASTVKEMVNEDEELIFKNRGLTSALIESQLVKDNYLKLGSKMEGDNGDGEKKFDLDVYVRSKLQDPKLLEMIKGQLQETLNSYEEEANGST
The description is as above.

Test [10] addresses T6, Prp22-AID-6FLAG (S. cerevisiae) (UniProt P24384).
T6 sequence: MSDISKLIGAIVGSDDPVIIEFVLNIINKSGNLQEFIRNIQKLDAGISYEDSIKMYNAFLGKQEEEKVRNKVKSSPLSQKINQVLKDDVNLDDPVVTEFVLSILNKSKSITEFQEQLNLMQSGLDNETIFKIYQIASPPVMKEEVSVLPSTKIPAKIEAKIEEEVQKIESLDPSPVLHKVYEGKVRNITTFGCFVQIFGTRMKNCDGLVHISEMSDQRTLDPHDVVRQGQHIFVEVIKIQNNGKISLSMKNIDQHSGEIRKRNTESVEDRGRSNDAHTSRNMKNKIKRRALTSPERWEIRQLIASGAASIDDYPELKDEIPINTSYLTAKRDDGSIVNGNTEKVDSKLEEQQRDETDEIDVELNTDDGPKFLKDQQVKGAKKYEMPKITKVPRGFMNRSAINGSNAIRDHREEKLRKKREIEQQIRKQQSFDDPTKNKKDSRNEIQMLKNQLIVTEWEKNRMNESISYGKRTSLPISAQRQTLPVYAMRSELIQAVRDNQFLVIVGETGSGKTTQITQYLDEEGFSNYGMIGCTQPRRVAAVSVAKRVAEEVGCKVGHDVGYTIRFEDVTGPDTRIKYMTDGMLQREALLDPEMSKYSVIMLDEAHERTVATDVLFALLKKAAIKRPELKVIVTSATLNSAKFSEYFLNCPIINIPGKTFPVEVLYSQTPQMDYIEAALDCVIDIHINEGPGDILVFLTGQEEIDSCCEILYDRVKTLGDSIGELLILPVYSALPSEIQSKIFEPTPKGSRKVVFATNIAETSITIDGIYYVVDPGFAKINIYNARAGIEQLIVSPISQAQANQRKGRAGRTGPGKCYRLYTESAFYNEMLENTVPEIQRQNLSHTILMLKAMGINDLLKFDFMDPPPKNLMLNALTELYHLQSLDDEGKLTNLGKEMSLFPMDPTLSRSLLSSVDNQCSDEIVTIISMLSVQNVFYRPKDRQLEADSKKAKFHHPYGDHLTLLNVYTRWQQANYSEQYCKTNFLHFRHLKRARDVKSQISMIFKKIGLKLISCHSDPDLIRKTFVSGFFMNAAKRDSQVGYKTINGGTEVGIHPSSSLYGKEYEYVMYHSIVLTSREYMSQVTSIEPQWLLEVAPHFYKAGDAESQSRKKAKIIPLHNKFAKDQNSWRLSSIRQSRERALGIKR
In words: co-IP; W303 extract; Prp22-AID-6FLAG precipitated with a FLAG antibody on Protein A/G Dynabeads overnight at 4°C in 50 mM Tris-HCl pH 7.5, 150 mM NaCl, 0.2% NP-40; blot with anti-MYC; in the absence or presence of RNase.

Take “SET1C762 complex (FLAG-Set1-C762 and the other untagged subunits) (from UniProt P38827 762-1080; P39706 1-426; P36104 1-329; P38123 1-315; P43132 1-505; Q03323 1-175; Q03012 1-353; P38337 1-142)”: the binding entry is recorded as “binds” in test [1] and “no binding (tested: 250 nM GST fragment, 25 nM complex)” in test [2].

For “Mcm2, in vitro translated (from UniProt P29469 1-868)”, in test [3], the binding entry was “binds weakly”.

Regarding “Sdc1, two-hybrid fusion (from UniProt Q03323 1-175)”, the binding result in test [4] is “binds”.

For “reconstituted SET1C (FLAG-Set1 and the seven other untagged subunits) (from UniProt P38827 1-1080; P39706 1-426; P36104 1-329; P38123 1-315; P43132 1-505; Q03323 1-175; Q03012 1-353; P38337 1-142) (complex)”, the binding result in test [2] is given as “no binding (tested: 250 nM GST fragment, 25 nM complex)”.

Take “Spp1, in vitro translated (from UniProt Q03012 1-353)”: the binding result in test [5] was “binds weakly”.

Regarding “Set1 (endogenous) (from UniProt P38827 1-1080)”, the binding entry in test [6] is on record as “binds”.

Turning to “Bre2, two-hybrid fusion (from UniProt P43132 1-505)”, in test [7], the binding entry is reported as “binds”.

Consider “Nis1, in vitro translated (from UniProt P53939 1-407)”, for which the binding entry in [8] is given as “binds”; in test [3], “binds”; in [9], “no binding”.

With “Myc-Set1 (chromosomally encoded) (from UniProt P38827 1-1080)”, the binding result in test [10] was “binds”.
